# Hit rate of the full screen: of about 310,000 compounds, about 18,000 (5.8%) were called active. Inconclusive means that the source gave no clear call. Such entries were picked first, then a sample of the others. Calls come from the whole dose curve; as a rule, active = well fitted inhibition curve with a large enough effect; inconclusive = small, poorly fitted or top-dose-only effect, or another doubt; inactive = no such curve, though single readings can be large or run the other way. Potencies of inconclusive entries are left out as doubtful fits.
# Experiment: Primary qHTS for delayed death inhibitors of the malarial parasite plastid, 48 hour incubation
# Conditions: P. falciparum luciferase growth in erythrocytes; series mostly up to 28.7 µM; activity change, negative = inhibition: at the top concentration
# Method in brief: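 Here the parasites carry a stable luciferase gene and grow inside erythrocytes in Albumax-based RPMI medium with compound for one erythrocytic cycle. Activity is scored as loss of luminescent signal.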
# % is set by controls: 0 for no effect and ±100 for the full control effect; potency is the fitted concentration of half-maximal effect; tags give direction and shape of the fitted curve.
SMILES,Potency,"activity change, negative = inhibition"
NS(=O)(=O)c1ccc(NC(=S)NC(=O)c2ccc(-c3ccccc3)cc2)cc1,"inconclusive [inhibitor, partial curve, poor fit]",–
Cc1cccc(NC(=O)CCCc2ccccc2)c1,–,inactive: 95.7%
O=[N+]([O-])c1c(C(Cl)Cl)nn(-c2ccccc2)c1N1CCCC1,"inconclusive [inhibitor, partial curve, poor fit]",–
Fc1ccccc1Cn1nnc2c(NCc3ccccn3)ncnc21,–,inactive: -13.3%
Cc1ccc(C(=O)Cc2nc3ccccc3[nH]2)cc1,active: 0.37 µM,–
CCN1CCN(CCC(=O)Nc2ccc(F)c(F)c2)CC1,–,inactive: 10%
FC(F)Oc1ccc(/C=N/c2c(-c3ccc(OC(F)F)cc3)nc3n2CCS3)cc1,"inconclusive [inhibitor, single point]",–
c1ccc2c(c1)oc1c(NCCN3CCOCC3)ncnc12,–,inactive: 32%
Cc1ccc(-n2c(SCC3CCCCO3)nnc2-c2ccco2)cc1 (stereo not given),"inconclusive [inhibitor, partial curve]",–
CC1(C)Cc2c(sc3c2c(=N)n(Cc2ccco2)c(=O)n3Cc2ccc(F)cc2)CO1,"inconclusive [inhibitor, single point]",–
O=C(NC(=S)NC1CCCCC1)c1ccccc1,"inconclusive [inhibitor, single point]",–
CCCOC(=O)c1ccc(NC(=O)C(CC)CC)cc1,–,inactive: 88.8%
Cc1ccc(C)c(NC(=O)CN(C)C(=O)CSC(C)C(=O)Nc2cc(C)on2)c1 (stereo not given),–,inactive: 65.3%
CC1(C)Cc2cccc(OCC(=O)N3CCN(c4cccc(C(F)(F)F)c4)CC3)c2O1,"inconclusive [inhibitor, single point]",–
COc1ccc(-n2nc3c(c2NC(=O)CC(C)C)CS(=O)C3)cc1 (stereo not given),–,inactive: 30.7%
CCN(CC)CCNC(=O)c1ccc(NC(=O)c2cc(S(=O)(=O)N3CCCCC3)ccc2C)cc1,"inconclusive [inhibitor, single point]",–
Cc1cccc(-n2c(SCC(=O)N3CCC(C(=O)O)CC3)nc3ccccc3c2=O)c1C,"inconclusive [inhibitor, partial curve, poor fit]",–
COc1ccc(N(CC(=O)NCCC(C)C)C(=O)c2snc(C(=O)NC3CCCCC3)c2N)c(OC)c1,"inconclusive [inhibitor, partial curve, poor fit]",–
CCOC(=O)c1ccc(NC(=O)c2nc[nH]c2C(=O)N(C)Cc2ccccc2)cc1,"inconclusive [inhibitor, single point]",–
CCN(CC)CCN(C(=O)c1ccc([N+](=O)[O-])cc1)c1nc2c(OC)cccc2s1,–,inactive: -12.3%
O=C(Nc1ccccn1)c1nc(-c2ccccc2)n(-c2ccccc2)n1,–,inactive: 1.02%
OCC(O)[C@@H](O[C@H]1O[C@H](CO)[C@@H](O)[C@H](O)[C@H]1O)[C@H](O)[C@@H](O)CO (stereo not given in full),"inconclusive [inhibitor, partial curve, poor fit]",–
Cc1ccc(C)c(C(=O)CN2C(=O)NC3(CCCCCC3)C2=O)c1,"inconclusive [inhibitor, single point]",–
O=C(COC(=O)C1(c2ccccc2)CC1)NNC(=O)c1ccccc1F,"inconclusive [inhibitor, single point]",–

SMILES,Potency,"activity change, negative = inhibition"
COc1ccc(-c2c(-c3ccccc3OC)oc3ccccc23)cc1F,active: 2.94 µM,–
COc1ccc(OC)c(/C=N/Nc2nncn2/N=C/c2cc(OC)ccc2OC)c1,–,inactive: 5.2%
S=C1NCCc2ccc(Cl)cc2C1c1ccccc1 (stereo not given),–,inactive: -36.2%
Cc1ccc(Nc2c(-c3ccco3)nc3ccccn23)cc1,"inconclusive [inhibitor, single point]",–
COc1ccc(Nc2ncc(C(=O)N3CCN(c4ccc(F)cc4)CC3)c3ccccc23)cc1,"inconclusive [inhibitor, single point]",–
Cc1cc(C)c(S(=O)(=O)c2ccccc2)c(N2CCOCC2)n1,"inconclusive [inhibitor, full curve, poor fit]",–
CCOC(=O)CCSc1nnc(-c2cccnc2)n1-c1ccccc1OC,–,inactive: -2.02%
CCN1CCN(C(=O)CCc2nc3ccccc3c(=O)[nH]2)CC1,–,inactive: 18.9%
COc1ccc(C(C(=O)NC2CCCC2)N(C(=O)c2snc(-c3ccc(F)cc3)c2N)c2cccc(F)c2)cc1 (stereo not given),"inconclusive [inhibitor, full curve, poor fit]",–
Cc1cc(Oc2ccc(-c3ccccc3)cc2)nc(N2CCOCC2)n1,"inconclusive [inhibitor, single point]",–
Cc1ccc(S(=O)(=O)N2CCOCC2)cc1NC(=O)Cn1cc(C(F)(F)F)cc(Cl)c1=O,–,inactive: 18.7%
CC(C)N(Cc1ccccc1)S(=O)(=O)c1ccc(F)cc1,"inconclusive [inhibitor, partial curve]",–
Cc1cc(C)c2sc(NC(=O)C3=COCCO3)nc2c1,–,inactive: 18.2%
C/C(=N\NC(=O)C1(C)CC1(Br)Br)c1cccc(NC(=O)C(C)(C)C)c1 (stereo not given),–,inactive: 8.64%
O=C(NC1CC1)C1CC(=O)N(c2cccc(Cl)c2)C1 (stereo not given),active: 10.4 µM,–
COc1ccc(NC(=O)CNC(=O)Cn2c(C)cc3ccccc3c2=O)cc1OC,"inconclusive [inhibitor, single point]",–
COCc1cc(C)nc(OCC(=O)N/N=C/c2ccc(OC)c(O)c2)c1C#N,"inconclusive [inhibitor, partial curve, poor fit]",–
O=c1ccc2ccc(OCc3nnc(-c4ccccc4Br)o3)cc2o1,–,inactive: 12.3%
CN(C)c1ccc(CNC(=O)CCS(=O)(=O)c2ccc3c(c2)oc(=O)n3C)cc1,"inconclusive [inhibitor, partial curve, poor fit]",–
O=C1c2ccccc2NC(c2cn[nH]c2-c2ccc(Cl)cc2)N1O (stereo not given),"inconclusive [inhibitor, single point]",–
CCN(C(=O)COC(=O)c1cc(Cl)ccc1OC)c1c(N)n(Cc2ccccc2)c(=O)[nH]c1=O,"inconclusive [inhibitor, single point]",–
COc1ccc(/C=C/C(=O)NC2CCCCCC2)cc1S(=O)(=O)N1CCOCC1,"inconclusive [inhibitor, single point]",–
O=C(COc1ccc(S(=O)(=O)N2CCOCC2)cc1Cl)NC1CC1,–,inactive: -19.5%
COC(=O)c1ccc(NC(=O)c2ccccc2NS(C)(=O)=O)cc1,–,inactive: 28.8%

SMILES,Potency,"activity change, negative = inhibition"
Cc1cc(-c2nnc(CCC(=O)NC(Cc3ccccc3)c3ccccc3)o2)no1 (stereo not given),"inconclusive [inhibitor, full curve, poor fit]",–
Cc1ccc(S(=O)(=O)N2CCN(C(=O)COC(=O)c3ccc(Br)o3)CC2)c(C)c1,"inconclusive [inhibitor, partial curve, poor fit]",–
CC/C(=N\Nc1ccccc1)c1c(O)n(C)c(=O)n(C)c1=O,–,inactive: -16.4%
CC(=O)Nc1ccc(N(C(=O)c2ccco2)C(C(=O)NC2CCCC2)c2cccs2)cc1 (stereo not given),"inconclusive [inhibitor, full curve, poor fit]",–
Cc1c(C(=O)NCc2ccco2)sc2nc(-c3ccccc3)cn12,"inconclusive [inhibitor, single point]",–
CSc1ccccc1C(=O)N1CCC(CCC(=O)NCc2ccc(F)cc2)CC1,"inconclusive [inhibitor, partial curve]",–
O=C(Nc1ccc(NC(=O)c2cccnc2Cl)cc1)c1cccc(Cl)c1,–,inactive: 14.5%
O=C(Nc1nccs1)c1cnccn1,–,inactive: 22.1%
COc1ccc(C(=O)NC(=S)NCc2ccco2)cc1Br,"inconclusive [inhibitor, single point]",–
Cc1cc(NS(=O)(=O)c2ccccc2)cc(Cl)c1O,–,inactive: -11.3%
O=C(Cc1ccc(Br)cc1)Nc1ccccc1N1CCCC1,"inconclusive [inhibitor, partial curve, poor fit]",–
COc1ccc(NS(=O)(=O)c2cc(NC(=O)c3nc4nc(C)cc(C)n4n3)ccc2C)cc1,"inconclusive [inhibitor, partial curve]",–
CCOC(=O)c1c[nH]c2c(C)ccc(Cl)c2c1=O,"inconclusive [inhibitor, single point]",–
Cc1cccc(N2CCN(C(=O)C3COc4ccccc4O3)CC2)c1C (stereo not given),"inconclusive [inhibitor, partial curve]",–
COC(=O)C1=C(c2cccc(OCc3ccccc3)c2)C[C@@H]2CC[C@H]1N2C(=O)NCc1cccc(OC)c1,active: 10.4 µM,–
CCOC(=O)c1c(NC(=O)c2cccs2)sc2c1CCN(C(=O)OCC)C2,"inconclusive [inhibitor, single point]",–
Cc1ccc2[nH]c3c(N4CCN(Cc5ccccc5)CC4)ncnc3c2c1,active: 1.65 µM,–
O=C1CC(c2ccccc2)c2ccccc21 (stereo not given),"inconclusive [inhibitor, single point]",–
CCOC(=O)c1c(C)[nH]c(C)c1C(=O)COC(=O)/C=C/c1ccc(OC)cc1,"inconclusive [inhibitor, single point]",–
Cc1cc(C)c(S(=O)(=O)Nc2ccccc2C(=O)OCC(=O)NCc2ccccc2)c(C)c1,"inconclusive [inhibitor, single point]",–
Cc1ccc(NC(=O)CO/N=C/c2ccccc2C)c(C)c1,"inconclusive [inhibitor, partial curve, poor fit]",–
Cc1ccc2c(c1)C1CN(C)CCC1N2C(=O)COc1ccccc1F (stereo not given),"inconclusive [inhibitor, single point]",–

# Source: PubChem BioAssay AID504832 (National Center for Advancing Translational Sciences (NCATS), 2011)
